Experimental data published in PubChem BioAssay AID1645886 (National Center for Advancing Translational Sciences (NCATS), 2021).
“And” between values parts separate entries of the source, which are not always exact repeats. Equal entries are not always repeated. Hit rate of the full screen: of about 16,000 compounds, about 260 (1.6%) were called active. The shares of active, inactive and inconclusive entries below differ from those in the screen. The call rests on the fitted dose curve; in most records, active means well fitted inhibition curve with a large enough effect; inconclusive means small, poorly fitted or top-dose-only effect; inactive means no such curve, though single readings can be large or run the other way. No potency is given beside an inconclusive call; the fits are too rough. The source holds several records for some structures; these can differ, active in one and inactive in another.

molecular target: Rap guanine nucleotide exchange factor 4 (Homo sapiens) (UniProt Q8WZA2); experiment: Validation qHTS for antagonist of cAMP-regulated guanine nucleotide exchange factor 4 (EPAC2); conditions: EPAC2 Rap1B BODIPY-GDP exchange, fluorescence; activity, negative = inhibition: at 112 µM (top of the series); further: nearly all actives have a fitted effect of over 40% in size
Procedure, shortened: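 Normalized against a 6.5 mM cAMP agonist control, compounds were tested on 100 nM EPAC2 exchanging Rap1B-bound BODIPY-GDP (250 nM) for 50 uM GDP. Fluorescence drop (ex 480, em 540 nm) was tracked at room temperature over 30 min at 5-min intervals.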
Potency means the concentration at half of the fitted maximal effect; tags describe the fitted curve by direction and shape.

Chain of UniProt Q8WZA2 (Q8WZA2 whole entry, looked up): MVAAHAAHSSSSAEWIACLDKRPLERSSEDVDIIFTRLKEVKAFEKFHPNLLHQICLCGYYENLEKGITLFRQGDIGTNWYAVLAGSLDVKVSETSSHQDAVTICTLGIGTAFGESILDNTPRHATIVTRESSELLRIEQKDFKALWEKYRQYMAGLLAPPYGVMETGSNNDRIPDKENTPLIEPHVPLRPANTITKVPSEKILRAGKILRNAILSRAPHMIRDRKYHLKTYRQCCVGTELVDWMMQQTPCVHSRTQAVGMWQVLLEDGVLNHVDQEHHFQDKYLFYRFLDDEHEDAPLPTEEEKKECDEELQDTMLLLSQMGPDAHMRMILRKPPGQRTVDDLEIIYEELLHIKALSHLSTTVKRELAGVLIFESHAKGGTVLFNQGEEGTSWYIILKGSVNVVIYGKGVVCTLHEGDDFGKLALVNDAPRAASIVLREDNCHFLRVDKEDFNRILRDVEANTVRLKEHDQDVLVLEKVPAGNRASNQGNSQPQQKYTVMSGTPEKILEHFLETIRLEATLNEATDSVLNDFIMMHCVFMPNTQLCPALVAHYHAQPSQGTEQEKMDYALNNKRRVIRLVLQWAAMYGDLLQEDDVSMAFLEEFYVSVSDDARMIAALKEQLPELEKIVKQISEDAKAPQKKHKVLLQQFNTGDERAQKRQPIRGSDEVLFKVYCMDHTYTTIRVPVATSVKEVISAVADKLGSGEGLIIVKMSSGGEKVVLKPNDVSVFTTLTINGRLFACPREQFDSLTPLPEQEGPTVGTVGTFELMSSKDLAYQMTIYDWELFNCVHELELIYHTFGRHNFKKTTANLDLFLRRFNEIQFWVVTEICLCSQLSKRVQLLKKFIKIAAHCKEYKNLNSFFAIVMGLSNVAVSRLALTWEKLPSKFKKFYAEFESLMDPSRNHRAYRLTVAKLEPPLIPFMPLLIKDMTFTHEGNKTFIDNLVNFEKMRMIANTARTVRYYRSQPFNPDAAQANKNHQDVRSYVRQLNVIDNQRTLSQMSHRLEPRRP

| SMILES | Potency | activity, negative = inhibition |
| --- | --- | --- |
| C#CCCCCCCCCCCCC(O)CC(O)COC(C)=O (configuration not stated) | inconclusive [inhibitor, full curve] |  |
| O=C(Oc1ccccc1)c1ccccc1O |  | inactive: -5.27% |
| CC(=O)O[C@H]1C(=O)[C@@]2(C)C([C@H](OC(=O)c3ccccc3)[C@]3(O)C[C@H](OC(=O)[C@H](O)[C@@H](NC(=O)c4ccccc4)c4ccccc4)C(C)=C1C3(C)C)[C@]1(OC(C)=O)CO[C@@H]1C[C@@H]2O (some centres not stated) | inconclusive [inhibitor, partial curve] |  |
| COC(=O)C1=C(C(=O)OC)[C@]2([C@H]3C/C=C\CN[C@@H](Cc4ccccc4)C(=O)N3Cc3ccccc3)C=C[C@H]1O2 | inconclusive [inhibitor, partial curve, poor fit] |  |
| CN(C)c1nc(-c2cccc(NS(C)(=O)=O)c2)nc2ccccc12 |  | inactive: -16.2% |
| CC(C)CN1CCC(=O)N([C@H](CSc2ccccc2)Cc2ccccc2)CC1 | inconclusive [inhibitor, partial curve, poor fit] |  |
| COC(=O)c1ccccc1-c1cc(C)cc2c1OC(CNC(=O)C1CCOC1)C2 (configuration not stated) | inconclusive [inhibitor, partial curve] |  |
| Cc1cc(NC2CCCCC2)nc(-n2nc(C)cc2C)n1 | inconclusive [inhibitor, single point] |  |
| CC(C)(C)NC(=O)[C@@H]1C[C@@H]2CCCC[C@@H]2CN1C[C@@H](O)[C@H](Cc1ccccc1)NC(=O)[C@H](CC(N)=O)NC(=O)c1ccc2ccccc2n1 | inconclusive [inhibitor, partial curve] |  |
| C[C@@H]1CCC(=O)N(CC[C@H](Sc2ccccc2)c2ccccc2)CC1 | inconclusive [inhibitor, full curve, poor fit] |  |
| CC(C)NCC(O)c1ccc(O)c(O)c1 (configuration not stated) | inconclusive [inhibitor, single point] |  |
| Nc1ccc(O)cc1 | inconclusive [inhibitor, single point] |  |
| CCN1CCCC1CNCc1cc2ccc(SC)cc2nc1-c1cc(OC)ccc1OC (configuration not stated) | inconclusive [inhibitor, single point] |  |
| COc1cc(=O)n2c(c1C(=O)N(C)Cc1cscn1)CCN(C(=O)c1cccc(C)c1C)CC2 | inconclusive [inhibitor, single point] |  |
| CCCCCN(CCCCC)C(=O)C(CCC(=O)O)NC(=O)c1ccc(Cl)c(Cl)c1 (configuration not stated) | inconclusive [inhibitor, partial curve, poor fit] |  |
| CCCCCCCN(c1ccccc1)C1C[C@H]2CCCC(=O)N3CC[C@@H](C1)[C@@H]23 (some centres not stated) | inconclusive [inhibitor, single point] |  |
| Cc1cccc(C(=O)NCC2Cc3cc(F)cc(-c4cnccn4)c3O2)n1 (configuration not stated) | inconclusive [inhibitor, single point] |  |
| COc1ccccc1-c1ccnc(-n2ncc(C(=O)N3CCCCC3c3cccnc3)c2C)n1 (configuration not stated) |  | inactive: -5.02% |
| O=S1(=O)CCOC[C@H](CC2CCCCC2)N1Cc1ccccc1F | inconclusive [inhibitor, partial curve, poor fit] |  |
| Cc1ccc(NC(=O)c2cccc(N(C)C)c2)cc1NC(=O)c1ccc(O)cc1 | inconclusive [inhibitor, partial curve, poor fit] |  |
| O=C(CCN1CCN(CCO)CC1)N1c2ccccc2Sc2ccc(C(F)(F)F)cc21 |  | inactive: 6.64% |

| SMILES | Potency | activity, negative = inhibition |
| --- | --- | --- |
| COc1cc(OC)c2c(=O)c(-c3ccccc3)coc2c1 | inconclusive [inhibitor, partial curve, poor fit] |  |
| CCCCCCc1ccc(N2C[C@H](CCCCC)[C@@H](CC(=O)NCc3ccc(OC)cc3)C2=O)cc1 | inconclusive [inhibitor, single point] |  |
| CCN(CC)C(=S)SSC(=S)N(CC)CC | inconclusive [inhibitor, partial curve, poor fit] |  |
| O=C1CCC[C@@H]2[C@@H](Cc3ccccc3)[C@@H](Nc3ccccc3)C[C@@H]3CCN1[C@@H]32 | inconclusive [inhibitor, partial curve, poor fit] |  |
| CC(=O)SC1CC2=CC(=O)CC[C@]2(C)C2CC[C@@]3(C)C(CC[C@@]34CCC(=O)O4)C12 (some centres not stated) | inconclusive [inhibitor, single point] |  |
| CN(C)c1ccc(/C=C/c2ccnc3ccccc23)cc1Cl | inconclusive [inhibitor, full curve, poor fit] |  |
| COc1ccc(CN2CCC3(CC2)c2ccccc2[C@@H](NC(=O)c2ccccc2OC)[C@@H]3O)cc1O |  | inactive: 4.36% |
| CC(=O)c1c(O)c(C)c(O)c2c1OC1=CC(=O)C(C(C)=O)C(=O)[C@@]12C (some centres not stated) | inconclusive [inhibitor, partial curve] |  |
| CC(C)(C)C(=O)OCC(=O)[C@H]1CC[C@H]2[C@@H]3CCC4=CC(=O)CC[C@]4(C)[C@H]3CC[C@]12C |  | inactive: -17% |
| CCCC[C@H]1COCCS(=O)(=O)N1Cc1cccc([N+](=O)[O-])c1 | inconclusive [inhibitor, single point] |  |
| O=S(=O)(c1ccccc1)N1CCC2(CCCN(c3ncccn3)C2)CC1 | inconclusive [inhibitor, partial curve, poor fit] |  |
| NC(=NCCCCCCN=C(N)/N=C(\N)Nc1ccc(Cl)cc1)/N=C(\N)Nc1ccc(Cl)cc1 | inactive and active: 79.4 µM |  |
| CC(C)(C)C(=O)C(Oc1ccc(Cl)cc1)n1ccnc1 (configuration not stated) | inconclusive [inhibitor, full curve, poor fit] |  |
| Cc1ccc(CN2[C@@H](CC3CCCCC3)COCCS2(=O)=O)cc1 | inconclusive [inhibitor, full curve] |  |
| Cc1c(C(=O)O)c(O)cc2c1C(=O)c1c(O)c([C@@H]3O[C@H](CO)[C@@H](O)[C@H](O)[C@H]3O)c(O)c(O)c1C2=O | inconclusive [inhibitor, full curve] |  |
| CC(C)(C)C1CCC(=O)N(CCOc2ccccc2)CC1 (configuration not stated) | inconclusive [inhibitor, partial curve, poor fit] |  |
| Cc1nc2sccn2c(=O)c1CCN1CCC(=C(c2ccccc2)c2ccc(F)cc2)CC1 | inconclusive [inhibitor, partial curve, poor fit] |  |
| CC(C)=CCC/C(C)=C/CC/C(C)=C/CO | inconclusive [inhibitor, partial curve, poor fit] |  |
| CS(=O)(=O)c1ccc(-c2cc(Br)sc2-c2ccc(F)cc2)cc1 | active: 39.8 µM |  |
| c1ccc2c(c1)CN1CCCC1=N2 | inconclusive [inhibitor, partial curve] |  |
| CC(C)C[C@@H](CSc1ccccc1)N1CCN(CCc2ccccc2)CCC1=O | inconclusive [inhibitor, full curve] |  |

| SMILES | Potency | activity, negative = inhibition |
| --- | --- | --- |
| CC1=C(CC(=O)O)c2cc(F)ccc2/C1=C\c1ccc(S(C)(=O)=O)cc1 |  | inactive: 16.3% |
| CCCCCCCCCCCCCCCCCCc1ccc(C(=O)/C=C\C(=O)O)cc1 | inconclusive [inhibitor, partial curve, poor fit] |  |
| O=C(c1cc(C(F)(F)F)cc(C(F)(F)F)c1)N1CCC2(CC1)CCN(c1ccccn1)CC2 | inconclusive [inhibitor, partial curve, poor fit] |  |
| COC(=O)c1ccccc1NC(=O)c1ccc(F)cc1 | inconclusive [inhibitor, partial curve] |  |
| O=C(CO)[C@@H](O)[C@H](O)[C@H](O)CO |  | inactive: 9.14% |
| Cn1c(C(c2cc3ccccc3n2C)c2cc3ccccc3n2C)cc2ccccc21 |  | inactive: -2.33% |
| O=C1CCC[C@@H]2C[C@@]3(C[C@@H]4CCN1[C@H]24)Nc1cc([N+](=O)[O-])ccc1NC3=NC1CCCCC1 | inconclusive [inhibitor, single point] |  |
| COc1ccc(CNc2ncncc2-c2cccnc2)c(OC)c1 |  | inactive: -31.8% |
| Cc1ccnc2c(Cl)ccc(Cl)c12 |  | inactive: 11.6% |
| COc1ccc(C(=O)N2CCCC(c3nc(SCc4ccccn4)ncc3C)C2)cc1F (configuration not stated) | inconclusive [inhibitor, partial curve, poor fit] |  |
| CC(C)c1c(O)ccc2c1CCC1[C@@](C)(CO)CCC[C@@]21C (some centres not stated) |  | inactive: -22.1% |
| CCC1COCCS(=O)(=O)N1Cc1cccc(C(F)(F)F)c1 (configuration not stated) | inconclusive [inhibitor, single point] |  |
| c1cncc(CNc2nc(-c3ccc4c(c3)OCO4)nc3ccccc23)c1 |  | inactive: -19.8% |
| COC(=O)C[C@H]1c2cc(C(F)(F)F)ccc2S(=O)(=O)N1Cc1ccccc1 | inconclusive [inhibitor, partial curve, poor fit] |  |
| COc1cc(-c2ccc(Cl)cn2)cc2c1OCCN(S(=O)(=O)C[C@]13CC[C@H](CC1=O)C3(C)C)C2 |  | inactive: -29.3% |
| CN(C)CCC=C1c2ccccc2C=Cc2ccccc21 | inconclusive [inhibitor, single point] |  |
| Cc1cnc(SCc2ccccn2)nc1C1CCCN(C(=O)c2ccc3c(c2)OCCO3)C1 (configuration not stated) |  | inactive: -0.787% |
| O=C1C(=O)N(Cc2ccc(Cl)c(Cl)c2)c2ccccc21 | inconclusive [inhibitor, partial curve] |  |
| Cc1ccc(-c2ccnc(-n3ncc(C(=O)N(C)Cc4cccc5ncccc45)c3C3CC3)n2)o1 |  | inactive: 5.35% |
| Nc1ccc(C(=O)Oc2ccccc2)c(O)c1 | inconclusive [inhibitor, partial curve, poor fit] |  |
